± gives the standard deviation of the averaged measurements. Whole data set: some 33,000 sequences, median “E-score (dimensionless, -0.5 to 0.5)” near -0.046, cut for the highest 2% near 0.36. The list shows a part of the results.
System: T1, SpTbr T-box DNA-binding domain (GST fusion)
T1 sequence: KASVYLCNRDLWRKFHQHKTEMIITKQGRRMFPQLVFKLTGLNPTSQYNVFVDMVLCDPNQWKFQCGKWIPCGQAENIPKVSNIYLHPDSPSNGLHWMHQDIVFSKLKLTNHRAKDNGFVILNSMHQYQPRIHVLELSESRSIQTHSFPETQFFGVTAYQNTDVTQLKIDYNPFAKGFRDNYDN
Assay: PBM E-score of 8-mer (E-score (dimensionless, -0.5 to 0.5)); Tbr is Tbrain of the sea star Patiria miniata (Pm) or the sea urchin Strongylocentrotus purpuratus (Sp); higher = stronger binding preference; most listed sequences are background and not binding sites
Conditions: the construct has about 5 more residues each side
Procedure, shortened: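 GST-fused Tbr T-box DNA-binding domains (the whole T-box plus about five flanking residues) were expressed in BL21 E. coli at 20 °C and purified by glutathione affinity chromatography. Universal Agilent oligonucleotide arrays were made double-stranded by primer extension, incubated with 200 nM protein in PBS (pH 7.5), then scanned and quantified. Every ungapped 8-mer was scored from probe intensities. The Universal PBM Analysis Suite gave each word an enrichment E-score, averaged over duplicate arrays.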

Sequence	PBM E-score of 8-mer
ATGGCAAG	0.125 ± 0.045
AGTATCAG	-0.15 ± 0.0022
CTGATCCC	-0.0431 ± 0.068
CTACATAG	-0.0403 ± 0.05
AAGCTCAC	0.153 ± 0.024
AGATGGCT	-0.0768 ± 0.061
CCCCTCGG	-0.255 ± 0.051
ACCACGAC	-0.0488 ± 0.1
GCTTGCGA	0.16 ± 0.0045
ATTCATTG	-0.223 ± 0.079
ATAAGTGA	0.217 ± 0.063
AGCTGCCC	-0.174 ± 0.096
AGCGTAGA	-0.0444 ± 0.021
AATCAGGA	-0.224 ± 0.017
GCCAATAC	-0.0685 ± 0.058
ATCACATG	0.268 ± 0.0082
ACAACGGA	-0.066 ± 0.0092
GACCCGCC	0.0388 ± 0.1
CCACCACC	0.101 ± 0.038
AATTGAAT	-0.0274 ± 0.094
CTACCACC	0.204 ± 0.027
GTGACCCA	-0.0916 ± 0.13

Sequence	PBM E-score of 8-mer
CGTGCACG	0.00996 ± 0.044
ATCCGCGG	0.00978 ± 0.039
CGACCACC	-0.151 ± 0.08
GATGTTTA	-0.0147 ± 0.024
ATAATAGA	-0.218 ± 0.095
AGACAGGC	-0.156 ± 0.058
AAGGTCCT	-0.0127 ± 0.028
ATACACGA	-0.0819 ± 0.022
CATACATA	-0.329 ± 0.038
AATCGAGT	-0.0417 ± 0.017
AATAACGA	0.186 ± 0.02
CGATACCC	-0.00698 ± 0.068
AGTGTTCG	0.205 ± 0.041
CCTTACGA	-0.119 ± 0.021
ATCTCTAA	-0.118 ± 0.026
TCATAACA	0.148 ± 0.074
ATTTATCC	-0.12 ± 0.08
TAAAATTA	-0.167 ± 0.052
AGAACCCG	0.124 ± 0.004
CACATAGA	0.158 ± 0.042
ACAGATCA	0.0135 ± 0.021
GGCGTGGA	0.104 ± 0.013

Sequence	PBM E-score of 8-mer
CACTCTCA	0.317 ± 0.00081
GAAATTAA	-0.222 ± 0.12
AATCTAGC	0.023 ± 0.042
GCATCAGC	-0.093 ± 0.0066
TAGCATCA	0.0144 ± 0.028
TCCCAAAA	-0.271 ± 0.0059
CTCCGTTC	0.155 ± 0.012
CACAGACC	-0.0948 ± 0.053
CAAGCAGG	-0.325 ± 0.024
ACGGCCAA	-0.146 ± 0.049
AGCAACTC	0.0392 ± 0.07
CGTCTCGC	0.267 ± 0.055
AATCTGAA	-0.315 ± 0.065
ATCAGACC	-0.0133 ± 0.013
GATGTAGC	-0.198 ± 0.11
GGAAGTCC	-0.195 ± 0.0047
AATGAGCT	-0.0884 ± 0.019
ATCGCAAC	0.232 ± 0.0099
AATATGCA	-0.0665 ± 0.015
AAAGGCTC	-0.214 ± 0.06
ACCTCTTA	0.0296 ± 0.06
TCTCACAA	0.296 ± 0.014

Sequence	PBM E-score of 8-mer
CTGATTCA	-0.0453 ± 0.0073
CAGTTGGA	-0.0808 ± 0.0045
GACTATCA	0.14 ± 0.0065
ATCAAAAC	-0.0331 ± 0.1
CGTCGATA	-0.0449 ± 0.015
GAAGAGTC	-0.23 ± 0.028
CCCTGATA	-0.33 ± 0.1
ATGTTAAA	-0.132 ± 0.075
CATTGCCC	-0.249 ± 0.077
ACGGATGG	0.0385 ± 0.055
ACGAGGGC	-0.171 ± 0.051
GCCTCATA	-0.138 ± 0.044
AGTAATCC	-0.148 ± 0.061
AGGGCGAG	-0.0154 ± 0.0063
ACTGGTCG	-0.242 ± 0.076
GACAGCAA	0.207 ± 0.095
CGGTAAAG	-0.128 ± 0.036
CTGGACCC	-0.273 ± 0.069
ACGATCTA	0.0239 ± 0.057
ACTCAAGC	-0.127 ± 0.023
GATCGCAC	0.442 ± 0.0075
ATTTTATC	-0.0724 ± 0.048

Sequence	PBM E-score of 8-mer
AGAGGCCC	-0.318 ± 0.013
AGCGATTC	-0.168 ± 0.06
GCCAACCC	-0.0414 ± 0.077
GAGGTTAA	-0.0728 ± 0.0024
ACTCCTTG	-0.126 ± 0.059
AAATACGA	-0.24 ± 0.0075
ACGCTACC	0.0763 ± 0.082
CCATAGTA	-0.187 ± 0.0044
AGTGAACG	0.162 ± 0.051
CTGCTACC	-0.0436 ± 0.013
ATCGTGAC	0.219 ± 0.022
CAATTACC	0.162 ± 0.095
ATTCTCGA	0.0267 ± 0.0077
GCTTAGTA	-0.201 ± 0.025
ATCTAAAT	-0.089 ± 0.064
CTTCGGTC	-0.221 ± 0.051
CTTTCGCA	0.421 ± 0.015
AACTAAAC	-0.187 ± 0.0053
CGCCGGAG	-0.0395 ± 0.056
GCCATCGA	0.0625 ± 0.023
CAGGAGGC	-0.0988 ± 0.046
CACGAGGC	-0.0132 ± 0.011

Reference: the supplement of paper PMC4166925
